Assay results: patent US20130109581A1, “POSITIVELY CHARGED SPECIES AS BINDING REAGENTS IN THE SEPARATION OF PROTEIN AGGREGATES FROM MONOMERS” (priority 2009, published 2013)

Biological target: Abeta42 globulomer (Homo sapiens, UniProt P05067)
Design: beta amyloid (1-42) was monomerized with incubation in hexafluoroisopropanol
Method: Selected peptides from Table 15 were conjugated to DYNAL beads using the linker Ac-Cys-Lys-Ahx-Ahx at the amino terminus of the peptides, following the same protocol as described above. The charge density of these reagents on beads was as low as about 4000 nmol/m^2, for the peptides with only one positively charged residue, and proportionally higher for the peptides with more than one positively charged residues. […] All of the sequences listed in table 15 that were tested on beads were validated to bind Abeta42 globulomer specifically when coated to beads (Table 15 and data not shown)

Sequence | Specifically bound Aβ42 globulomers on beads?
IRYVTHQYILWP | Yes
KFYLYAIDTHRM | Yes
KIIKWGIFWMQG | Yes
KLSLIWLHTHWH | Yes
LIPIRKKYFFKL | Yes
LTAVKKVKAPTR | Yes
MKFMKMHNKKRY | Yes
WAVKLFTFFMFH | Yes
YNKIGVVRLFSE | Yes
YQSWWFFYFKLA | Yes
YRHRWEVMLWWP | Yes
